From PubChem BioAssay (Tox21)
Values joined by “and” are separate entries in the source; they are usually repeats but may differ in a detail not shown here. Identical values can stand only once. The inconclusive results got no clear call from the source; some entries with a clear call stand among them for comparison. For part of these data: Potencies beside an inconclusive call are fits to weak or partial responses and may not hold up. Some structures have more than one record in an assay (separate samples or runs), and their calls can disagree. Active and inactive are the calls of the source. Unless noted, the call rests on the fitted dose curve; in most records, active means well fitted curve in the direction sought with a large enough effect in the repeat runs; inconclusive means weak or mixed curves; inactive means no such curve, though single readings can be large; an effect the other way counts as inactive or inconclusive.

Experiments:
[1] = qHTS assay to identify small molecule agonists of the estrogen receptor beta (ER-beta) signaling pathway - cell viability counter screen (AID 1259380); further: nearly all actives have a fitted effect of over 30% in size; further: potency means the concentration at half of the fitted maximal effect
Method in brief: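 Cells used were ER-beta-UAS-bla HEK293T in medium with 2% charcoal-stripped FBS. They were treated for 16 hr at 37C. Viability came from CellTiter-Glo luminescence.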

[2] = qHTS assay to identify small molecule antagonists of the estrogen receptor beta (ER-beta) signaling pathway - cell viability counter screen (AID 1259382); further: nearly all actives have a fitted effect of over 55% in size; further: potency means the concentration at half of the fitted maximal effect
Method in brief: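 Agonist-stimulated (1nM E2) ER-beta-UAS-bla HEK293T cells are incubated with library compounds for 16 hr at 37C. Cell viability is then assessed in the reporter-assay wells by adding CellTiter-Glo and reading luminescence after 30 min.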

[3] = qHTS assay to identify small molecule agonists of the estrogen receptor alpha (ER-alpha) signaling pathway in the presence of an antagonist - cell viability counter screen (AID 1259386);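 further: potency means the concentration at half of the fitted maximal effect; cells exposed to compounds for 22 h at 37 °C before the viability read; nearly all actives have a fitted effect of over 30% in size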
Method in brief: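 ICI-182,780 at 10.0nM final accompanies the compound titration (15 concentrations, 22hr, 37C) on VM7Luc4E2 cells. The CellTiter-Fluor fluorescence readout runs in the same wells as the luciferase assay.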

[4] = biological target: Progesterone receptor (Homo sapiens) (UniProt P06401); test: qHTS assay to identify small molecule agonists of the progesterone receptor (PR) signaling pathway (AID 1346784; calls by dose curve; further: on the % scale 0 is the no-effect control and ±100 the full control effect; nearly all actives have a fitted effect of over 30% in size); settings: PR-UAS-bla HEK293T, beta-lactamase FRET ratio, 16 h; activation: at 92.4 µM (top of the series) unless noted
Chain of UniProt P06401 (P06401 whole entry, looked up): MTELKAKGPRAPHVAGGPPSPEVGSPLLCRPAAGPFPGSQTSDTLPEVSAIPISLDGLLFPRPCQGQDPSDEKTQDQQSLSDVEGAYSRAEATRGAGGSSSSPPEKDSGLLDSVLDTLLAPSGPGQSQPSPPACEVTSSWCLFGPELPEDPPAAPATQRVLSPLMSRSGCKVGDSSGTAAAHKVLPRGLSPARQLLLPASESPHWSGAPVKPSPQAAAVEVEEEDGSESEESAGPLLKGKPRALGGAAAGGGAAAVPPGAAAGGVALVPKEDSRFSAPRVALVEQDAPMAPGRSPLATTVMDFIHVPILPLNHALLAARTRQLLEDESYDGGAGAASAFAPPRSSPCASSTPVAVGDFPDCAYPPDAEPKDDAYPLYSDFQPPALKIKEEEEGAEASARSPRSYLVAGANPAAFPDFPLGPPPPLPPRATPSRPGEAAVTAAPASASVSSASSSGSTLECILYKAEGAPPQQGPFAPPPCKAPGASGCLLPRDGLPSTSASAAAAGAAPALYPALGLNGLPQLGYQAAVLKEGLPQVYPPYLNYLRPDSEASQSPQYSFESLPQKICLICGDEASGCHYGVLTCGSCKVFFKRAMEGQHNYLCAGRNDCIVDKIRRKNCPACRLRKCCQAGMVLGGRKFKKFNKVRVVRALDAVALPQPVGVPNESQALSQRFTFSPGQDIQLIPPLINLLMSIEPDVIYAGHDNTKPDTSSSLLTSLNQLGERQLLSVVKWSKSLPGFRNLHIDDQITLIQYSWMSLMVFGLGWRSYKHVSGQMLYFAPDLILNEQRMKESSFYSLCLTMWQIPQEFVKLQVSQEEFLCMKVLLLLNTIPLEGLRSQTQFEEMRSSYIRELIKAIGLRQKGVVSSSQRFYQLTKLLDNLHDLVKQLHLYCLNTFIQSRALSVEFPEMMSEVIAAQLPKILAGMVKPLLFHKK
Method in brief: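 Agonist qHTS: compounds pinned onto 3,000 PR-UAS-bla HEK 293T cells per well in charcoal-stripped serum medium, 16hr at 37C, then beta-lactamase activity measured by LiveBLAzer FRET fluorescence after 2 hours at room temperature.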

[5] = biological target: Progesterone receptor (Homo sapiens) (UniProt P06401); test: qHTS assay to identify small molecule antagonists of the progesterone receptor (PR) signaling pathway (AID 1346795; active means well fitted inhibition curve with a large enough effect in the signal ratio in the repeat runs, not every such curve was filed as active; inconclusive means weak or mixed curves; the % refers to the signal ratio; further: potency means the concentration at half of the fitted maximal effect; on activity change, negative = inhibition: on the % scale 0 is the no-effect control and ±100 the full control effect); settings: PR-UAS-bla HEK293T, beta-lactamase FRET ratio, 16 h; activity change, negative = inhibition: at 92.4 µM (top of the series) unless noted
Method in brief: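 Antagonist mode with agonist R5020 at 1 nM final and 16 hr incubation at 37C. Reporter was beta-lactamase driven by UAS in HEK293T (PR-UAS-bla), 2% charcoal-stripped serum; signal from LiveBLAzer FRET substrate, 2 hr at room temperature.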

[6] = qHTS assay to identify small molecule antagonists of the progesterone receptor (PR) signaling pathway - cell viability counter screen (AID 1346798); further: potency means the concentration at half of the fitted maximal effect; nearly all actives have a fitted effect of over 50% in size
Method in brief: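 Cytotoxicity read as CellTiter-Glo luminescence (30 min, room temperature) in the same wells as the beta-lactamase readout. HEK293T PR-UAS-bla cells in charcoal-stripped 2% FBS received compound and R5020, then 16 h at 37C, 5% CO2.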

[7] = Human pregnane X receptor (PXR) small molecule agonists, qHTS cell viability counter screen (AID 1346977); further: potency means the concentration at half of the fitted maximal effect; nearly all actives have a fitted effect of over 50% in size
Method in brief: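 Same-well viability read: CellTiter-Fluor added after 23 hr compound exposure, fluorescence measured 1 hr later. Cells were PXR-Luc HepG2 seeded at 2,000/well in 5% charcoal-stripped FBS medium, rested 5 hr before dosing at 37 C.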

[8] = Caspase-3/7 induction in CHO-K1 cells by small molecules, qHTS cell viability counter screen (AID 1346979); further: nearly all actives have a fitted effect of over 35% in size; further: potency means the concentration at half of the fitted maximal effect
Method in brief: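 Cytotoxicity counter screen: CellTiter-Fluor added to compound-treated wild-type CHO-K1 cells at 16 h (37C, 5% CO2), fluorescence measured 1 h later; same wells as caspase-3/7 measurement.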

[9] = biological target: Estrogen receptor (Homo sapiens) (UniProt P03372); test: qHTS assay to identify small molecule agonists of the estrogen receptor alpha (ER-alpha) signaling pathway in the presence of an antagonist (AID 1259383; calls by dose curve; further: potency means the concentration at half of the fitted maximal effect; nearly all actives have a fitted effect of over 15% in size)
Chain of UniProt P03372 (P03372 whole entry, looked up): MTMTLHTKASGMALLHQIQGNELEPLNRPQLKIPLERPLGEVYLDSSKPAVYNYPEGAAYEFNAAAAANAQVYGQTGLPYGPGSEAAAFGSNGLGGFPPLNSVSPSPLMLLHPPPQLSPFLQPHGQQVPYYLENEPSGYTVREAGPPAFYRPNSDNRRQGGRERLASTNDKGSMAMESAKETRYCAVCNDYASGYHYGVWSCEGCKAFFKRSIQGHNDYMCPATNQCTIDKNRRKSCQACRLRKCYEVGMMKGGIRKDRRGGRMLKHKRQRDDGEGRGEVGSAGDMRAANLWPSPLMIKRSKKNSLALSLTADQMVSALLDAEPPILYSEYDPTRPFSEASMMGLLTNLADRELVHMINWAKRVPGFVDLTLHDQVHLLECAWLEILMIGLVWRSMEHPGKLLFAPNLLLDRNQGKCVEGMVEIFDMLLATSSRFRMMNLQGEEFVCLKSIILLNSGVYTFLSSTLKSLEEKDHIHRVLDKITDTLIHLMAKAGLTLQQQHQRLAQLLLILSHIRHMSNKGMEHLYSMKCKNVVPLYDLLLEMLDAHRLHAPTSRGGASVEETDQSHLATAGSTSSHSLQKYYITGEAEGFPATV
Method in brief: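 Using VM7Luc4E2 cells seeded 24hr before treatment, antagonist ICI-182,780 (10.0nM final) was added, followed by compounds at 15 concentrations. Plates incubated 22hr; ONE-Glo luminescence quantified reporter activity.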

[10] = qHTS assay to identify small molecule agonists of the progesterone receptor (PR) signaling pathway - cell viability counter screen (AID 1346799; calls by dose curve; further: potency means the concentration at half of the fitted maximal effect; nearly all actives have a fitted effect of over 45% in size)
Method in brief: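 Cytotoxicity measured by CellTiter-Glo luminescence (30 min, RT) in the same wells as the PR beta-lactamase agonist read. Those HEK293T cells had 16 h compound treatment at 37 C in 2% charcoal-stripped FBS medium.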

[11] = qHTS assay to identify small molecule antagonists of the TGF-beta/Smad signaling pathway - cell viability counter screen (AID 1346824); further: potency means the concentration at half of the fitted maximal effect; nearly all actives have a fitted effect of over 50% in size
Method in brief: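 SBE-bla HEK 293T cells, incubated overnight, then compound plus 0.25 ng/mL TGF-beta1 (stock added) for 5 hr at 37 C. Viability was read in the same wells by CellTiter-Glo luminescence after 30 min at room temperature.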

[12] = qHTS assay to identify small molecule agonists of the TGF-beta/Smad signaling pathway - cell viability counter screen (AID 1346829); further: potency means the concentration at half of the fitted maximal effect; nearly all actives have a fitted effect of over 45% in size
Method in brief: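 CellTiter-Glo luminescence readout; SBE-bla HEK 293T cells, overnight plating, compound 5 hr at 37 C/5% CO2, then bla substrate 2 hr RT, then CellTiter-Glo 30 min RT.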

[13] = biological target: Thyrotropin-releasing hormone receptor (Homo sapiens) (UniProt P34981); test: qHTS assay to identify small molecule antagonists of the thyrotropin-releasing hormone receptor (TRHR) signaling pathway (AID 1346877; active means well fitted inhibition curve with a large enough effect in the repeat runs, not every such curve was filed as active; inconclusive means weak or mixed curves; further: potency means the concentration at half of the fitted maximal effect)
Chain of UniProt P34981 (P34981 whole entry, looked up): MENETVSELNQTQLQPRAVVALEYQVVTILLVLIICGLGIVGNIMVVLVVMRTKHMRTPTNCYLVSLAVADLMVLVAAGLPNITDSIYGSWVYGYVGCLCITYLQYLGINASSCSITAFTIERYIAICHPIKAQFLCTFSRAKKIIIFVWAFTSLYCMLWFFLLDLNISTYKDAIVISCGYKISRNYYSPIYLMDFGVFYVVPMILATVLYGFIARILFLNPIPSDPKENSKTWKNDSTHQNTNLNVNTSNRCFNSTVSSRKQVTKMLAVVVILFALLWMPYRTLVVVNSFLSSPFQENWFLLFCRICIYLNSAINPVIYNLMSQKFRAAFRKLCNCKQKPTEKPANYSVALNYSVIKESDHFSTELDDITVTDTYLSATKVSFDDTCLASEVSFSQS
Method in brief: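 Screening used HEK293 cells engineered with TRHR, with a brief 5 min room-temperature compound exposure preceding addition of TRH to 1 nM. The read-out was kinetic calcium-dye fluorescence, concentration-response from 15 doses in triplicate.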

[14] = qHTS assay to identify small molecule antagonists of the TGF-beta/Smad signaling pathway (AID 1346924; active means well fitted inhibition curve with a large enough effect in the signal ratio in the repeat runs, not every such curve was filed as active; inconclusive means weak or mixed curves; the % refers to the signal ratio; further: potency means the concentration at half of the fitted maximal effect); settings: SBE-bla HEK293T, TGF-beta/Smad reporter, beta-lactamase ratio; activity, negative = inhibition: at 76.8 µM (top of the series) unless noted
Method in brief: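 SBE-bla HEK 293T cells were plated overnight, then received compound in DMSO plus TGF-beta1 (added as a 0.25 ng/mL solution) and were incubated 5 h at 37 C. Beta-lactamase reporter activity was read after 2 h at room temperature with LiveBLAzer B/G FRET substrate (ex 405, em 460/530 nm).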

[15] = biological target: Thyrotropin receptor (Homo sapiens) (UniProt P16473); test: qHTS assay to identify small molecule antagonists of the thyroid stimulating hormone receptor (TSHR) signaling pathway (AID 1259385; calls by dose curve; further: nearly all actives have a fitted effect of over 20% in size; further: potency means the concentration at half of the fitted maximal effect; on activity change, negative = inhibition: on the % scale 0 is the no-effect control and ±100 the full control effect); settings: TSHR-HEK293 cAMP HTRF, TSH-stimulated antagonist mode; activity change, negative = inhibition: at 92.4 µM (top of the series) unless noted
Chain of UniProt P16473 (P16473 whole entry, looked up): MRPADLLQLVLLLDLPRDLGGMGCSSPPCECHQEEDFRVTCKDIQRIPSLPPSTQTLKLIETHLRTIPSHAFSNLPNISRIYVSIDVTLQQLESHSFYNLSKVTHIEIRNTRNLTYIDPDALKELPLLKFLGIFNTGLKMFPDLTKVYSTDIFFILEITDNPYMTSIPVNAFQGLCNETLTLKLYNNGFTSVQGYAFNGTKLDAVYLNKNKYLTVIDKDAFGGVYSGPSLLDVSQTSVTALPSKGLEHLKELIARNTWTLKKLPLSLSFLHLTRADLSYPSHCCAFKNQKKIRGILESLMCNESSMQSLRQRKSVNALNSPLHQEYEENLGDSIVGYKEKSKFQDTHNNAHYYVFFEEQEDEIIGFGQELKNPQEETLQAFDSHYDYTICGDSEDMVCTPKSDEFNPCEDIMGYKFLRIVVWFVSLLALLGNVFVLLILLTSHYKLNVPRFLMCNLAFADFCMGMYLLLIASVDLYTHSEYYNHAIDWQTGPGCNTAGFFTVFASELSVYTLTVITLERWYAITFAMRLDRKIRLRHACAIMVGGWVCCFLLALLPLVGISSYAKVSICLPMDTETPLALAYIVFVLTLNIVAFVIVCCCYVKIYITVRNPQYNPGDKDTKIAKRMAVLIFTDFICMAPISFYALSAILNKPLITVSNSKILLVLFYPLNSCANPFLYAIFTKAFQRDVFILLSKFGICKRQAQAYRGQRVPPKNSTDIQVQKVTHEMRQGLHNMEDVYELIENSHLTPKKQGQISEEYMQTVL
Method in brief: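 TSHR-HEK293 cells (800/well) plated 18 h, then compounds with Ro20-1724 and TSH at 1.5 ng/mL final, 30 min at room temperature. cAMP quantified by HTRF (cAMP-d2/anti-cAMP-cryptate, 1 h); 15 concentrations in triplicate.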

[16] = qHTS assay to identify small molecule agonists of the TGF-beta/Smad signaling pathway (AID 1346859; active means well fitted activation curve with a large enough effect in the signal ratio in the repeat runs, not every such curve was filed as active; inconclusive means weak or mixed curves; the % refers to the signal ratio; further: potency means the concentration at half of the fitted maximal effect; on activation: on the % scale 0 is the no-effect control and ±100 the full control effect); settings: SBE-bla HEK293T, TGF-beta/Smad beta-lactamase reporter, 5 h; activation: at 76.8 µM (top of the series)
Method in brief: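 Fluorescence (ex 405 nm; em 460 and 530 nm) was read 2 h after LiveBLAzer FRET substrate at RT. The preceding compound treatment of overnight-plated SBE-bla HEK293T cells lasted 5 h at 37 C.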

[17] = biological target: Thyrotropin-releasing hormone receptor (Homo sapiens) (UniProt P34981); test: qHTS assay to identify small molecule agonists of the thyrotropin-releasing hormone receptor (TRHR) signaling pathway (AID 1346891; calls by dose curve; further: potency means the concentration at half of the fitted maximal effect)
Method in brief: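 Agonist-mode intracellular calcium readout: kinetic fluorescence over 3 min at 1 s intervals after compound addition to TRHR-HEK293 cells (18 h seeded, 2 h dye-loaded at 37 C). Fifteen concentrations, triplicates.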

[18] = Caspase-3/7 induction in HepG2 cells by small molecules, qHTS assay (AID 1346978); further: potency means the concentration at half of the fitted maximal effect; nearly all actives have a fitted effect of over 15% in size
Method in brief: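 Wild-type HepG2 cells, 2,000/well, settled 5 hr at 37 C and 5% CO2, then compound-treated for 17 hr; caspase-3/7 activity read by luminescent Caspase-Glo 3/7 after 30 min at room temperature.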
Tags describe the fitted curve by direction and shape or compound fluorescence and quenching.

CCCCCC[n+]1ccccc1
Potency [1]: inconclusive: 30.6 µM [cytotoxic, partial curve, poor fit] | Potency [2]: inactive | Potency [3]: inconclusive: 13.7 µM [cytotoxic, single point] | Potency [4]: inactive | Potency [5]: inconclusive: 77.4 µM [falling, single point] | activity change, negative = inhibition [5]: inconclusive: -39.1% | Potency [6]: inconclusive: 55 µM [cytotoxic, partial curve] and inconclusive: 77.4 µM [cytotoxic, single point] and inconclusive: 556 nM [cytotoxic, single point] | Potency [7]: inconclusive: 61.1 µM [cytotoxic, partial curve] and inconclusive: 27.3 µM [cytotoxic, partial curve] | Potency [8]: inconclusive: 77.7 µM [cytotoxic, single point] and inconclusive: 69 µM [cytotoxic, single point] and inactive

O=C(Nc1ccc(Br)cc1)c1cc(Br)cc(Br)c1O
Potency [1]: inconclusive: 272 µM [cytotoxic, partial curve, poor fit] | Potency [2]: inconclusive: 68.3 µM [cytotoxic, partial curve, poor fit] and inconclusive: 8.41 µM [cytotoxic, full curve] | Potency [9]: active: 2.42 µM | Potency [3]: active: 21.6 µM and active: 9.69 µM and inconclusive: 10.6 µM [cytotoxic, full curve] | activation [4]: inconclusive: -26.9% | Potency [6]: active: 12.1 µM and active: 21.7 µM and inconclusive: 33.5 µM [cytotoxic, single point] | Potency [10]: inconclusive: 21.6 µM [cytotoxic, full curve, poor fit] and inconclusive: 15.4 µM [cytotoxic, full curve, poor fit] | Potency [11]: active: 30.8 µM and active: 21.9 µM and active: 19 µM | Potency [12]: active: 24.5 µM and active: 43.6 µM and active: 23.9 µM | Potency [13]: inconclusive: 26.8 µM [inhibitor] | Potency [14]: inconclusive: 21.8 µM and inconclusive: 24.5 µM [partial curve] and inconclusive: 23.9 µM | Potency [8]: active: 17.2 µM and active: 15.4 µM and inconclusive: 33.5 µM [cytotoxic, single point]

O=CC(Br)(Br)Br
Potency [1]: active: 21.6 µM | Potency [2]: inconclusive: 68.4 µM [cytotoxic] | Potency [15]: inconclusive: 76.7 µM [falling, single point] | Potency [3]: inconclusive: 60.9 µM [cytotoxic, partial curve] | Potency [11]: inconclusive: 54.8 µM [cytotoxic, single point] | Potency [12]: inconclusive: 61.4 µM [cytotoxic, single point]

CCOC(=O)c1ccccc1C(=O)OCC
Potency [1]: inactive

Oc1ccc(Cl)cc1Cc1ccccc1
Potency [1]: active: 54.5 µM and active: 27.6 µM and inconclusive: 29.8 µM [cytotoxic, single point] | Potency [2]: inconclusive: 29.8 µM [cytotoxic, partial curve, poor fit] | Potency [15]: active: 55.1 µM | Potency [3]: inconclusive: 68.6 µM [cytotoxic, partial curve, poor fit] and inconclusive: 34.8 µM [cytotoxic, partial curve] | Potency [6]: inconclusive: 68.6 µM [cytotoxic, single point] and inconclusive: 69.4 µM [cytotoxic] | Potency [11]: inconclusive: 55.6 µM [cytotoxic] | Potency [12]: inconclusive: 19.7 µM [cytotoxic, partial curve, poor fit] | Potency [16]: inactive | Potency [13]: inconclusive: 27.2 µM [inhibitor, partial curve] | Potency [17]: inconclusive: 39.4 µM [activator] | Potency [7]: inconclusive: 68.6 µM [cytotoxic, single point] and active: 70.8 µM | Potency [18]: inconclusive: 68.6 µM [activator, single point] and inconclusive: 26.6 µM [activator, partial curve, poor fit] | Potency [8]: inconclusive: 68.6 µM [cytotoxic, single point] and active: 55.1 µM and inconclusive: 26.6 µM [cytotoxic, single point]

Nc1ccc(Cl)cc1N
Potency [1]: inconclusive: 25.3 µM [cytotoxic, partial curve] | Potency [2]: inconclusive: 63.6 µM [cytotoxic, partial curve, poor fit] and inconclusive: 30.6 µM [cytotoxic, partial curve, poor fit] | activity change, negative = inhibition [15]: inconclusive: -1.62% [phenotype inactive] | Potency [3]: inconclusive: 54.5 µM [cytotoxic, partial curve] | Potency [5]: inconclusive: 56.7 µM [partial curve] | Potency [6]: inconclusive: 172 nM [rising, full curve, poor fit] | Potency [10]: inconclusive: 15.4 µM | Potency [16]: inconclusive: 45.4 µM [fluorescent] and inconclusive: 43.6 µM [fluorescent] | Potency [17]: inconclusive: 27.5 µM [activator, partial curve] | Potency [14]: inconclusive: 50.9 µM [rising, partial curve] | activity, negative = inhibition [14]: inconclusive: 2.21% | Potency [7]: inconclusive: 4.47 µM [cytotoxic, full curve] | Potency [8]: inconclusive: 56.7 µM [cytotoxic, partial curve] and inconclusive: 64.8 µM [cytotoxic]
